# Measurements from the supplement of paper PMC8728848.
# Some of the results follow.
# B1: GALT1 615 (Arabidopsis thaliana), Q8L7F9 (protein)
# chain: DPMRGSHHHHHHGMASMTGGQQMGRDLYDDDDKSRLQKPYITAAASVVVTPNTTLPMEWLRITLPDFMKEARNTQEAISGDDIAVVSGLFVEQNVSKEEREPLLTWNRLESLVDNAQSLVNGVDAIKEAGIVWESLVSAVEAKKLVDVNENQTRKGKEELCPQFLSKMNATEADGSSLKLQIPCGLTQGSSITVIGIPDGLVGSFRIDLTGQPLPGEPDPPIIVHYNVRLLGDKSTEDPVIVQNSWTASQDWGAEERCPKFDPDMNKKVDDLDECNKMVGGEINRTSSTSLQSNTSRGVPVAREASKHEKYFPFKQGFLSVATLRVGTEGMQMTVDGKHITSFAFRDTLEPWLVSEIRITGDFRLISILA
# Legend:
# Test in all cases: glycan array binding signal (z-score within array); higher = stronger binding
# Conditions in all cases: glycan notation: IUPAC condensed, linker removed
# [1] = target: Gal(b1-3)[Neu5Ac(a2-6)]GalNAc
# Method in brief: (§1)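 Negative Z-scores can be read as non-binding. The Z-score is calculated within each array and then averaged across arrays of one protein sequence at different concentrations or buffers and across linkers. Arrays, 3228 in all, were curated from the Consortium for Functional Glycomics database and kept only where the protein sequence was available.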
# [2] = target: Gal(b1-3)[Neu5Ac(a2-6)]GlcNAc(b1-6)Gal(b1-4)Glc
# Method in brief: as §1
# [3] = target: Gal(b1-3)[Neu5Ac(b2-6)]GalNAc
# Method in brief: as §1
# [4] = target: Gal(b1-4)GalNAc(a1-3)[Fuc(a1-2)]Gal(b1-4)GlcNAc
# Method in brief: as §1
# [5] = target: Gal(b1-4)GalNAc(b1-3)[Fuc(a1-2)]Gal(b1-4)GlcNAc
# Method in brief: as §1
# [6] = target: Gal(b1-4)Glc
# Method in brief: as §1
# [7] = target: Gal(b1-4)Glc6S
# Method in brief: as §1
# [8] = target: Gal(b1-4)GlcNAc
# Method in brief: as §1
# [9] = target: Gal(b1-4)GlcNAc(a1-6)Gal(b1-4)GlcNAc
# Method in brief: as §1
# [10] = target: Gal(b1-4)GlcNAc(b1-2)Man(a1-3)Man(b1-4)GlcNAc(b1-4)GlcNAc
# Method in brief: as §1
# [11] = target: Gal(b1-4)GlcNAc(b1-2)Man(a1-3)[Gal(b1-4)GlcNAc(b1-2)Man(a1-6)]Man(b1-4)GlcNAc(b1-4)GlcNAc
# Method in brief: as §1
# [12] = target: Gal(b1-4)GlcNAc(b1-2)Man(a1-3)[Gal(b1-4)GlcNAc(b1-2)Man(a1-6)]Man(b1-4)GlcNAc(b1-4)[Fuc(a1-6)]GlcNAc
# Method in brief: as §1
# [13] = target: Gal(b1-4)GlcNAc(b1-2)Man(a1-3)[Man(a1-6)]Man(b1-4)GlcNAc(b1-4)GlcNAc
# Method in brief: as §1
# [14] = target: Gal(b1-4)GlcNAc(b1-2)Man(a1-6)Man(b1-4)GlcNAc(b1-4)GlcNAc
# Method in brief: as §1
# [15] = target: Gal(b1-4)GlcNAc(b1-2)Man(a1-6)[Man(a1-3)]Man(b1-4)GlcNAc(b1-4)GlcNAc
# Method in brief: as §1
# [16] = target: Gal(b1-4)GlcNAc(b1-2)[Gal(b1-4)GlcNAc(b1-4)]Man(a1-3)[Gal(b1-4)GlcNAc(b1-2)Man(a1-6)]Man(b1-4)GlcNAc(b1-4)GlcNAc
# Method in brief: as §1
# [17] = target: Gal(b1-4)GlcNAc(b1-3)Gal(b1-3)GlcNAc
# Method in brief: as §1
# [18] = target: Gal(b1-4)GlcNAc(b1-3)Gal(b1-4)Glc
# Method in brief: as §1
# [19] = target: Gal(b1-4)GlcNAc(b1-3)Gal(b1-4)GlcNAc
# Method in brief: as §1
# [20] = target: Gal(b1-4)GlcNAc(b1-3)Gal(b1-4)GlcNAc(b1-3)Gal(b1-4)GlcNAc
# Method in brief: as §1
# [21] = target: Gal(b1-4)GlcNAc(b1-3)Gal(b1-4)[Fuc(a1-3)]GlcNAc(b1-3)Gal(b1-4)[Fuc(a1-3)]GlcNAc
# Method in brief: as §1
# [22] = target: Gal(b1-4)GlcNAc(b1-3)GalNAc
# Method in brief: as §1
# [23] = target: Gal(b1-4)GlcNAc(b1-3)[Gal(b1-4)GlcNAc(b1-6)]Gal(b1-4)GlcNAc
# Method in brief: as §1
# [24] = target: Gal(b1-4)GlcNAc(b1-3)[GlcNAc(b1-6)]Gal(b1-4)GlcNAc
# Method in brief: as §1
# [25] = target: Gal(b1-4)GlcNAc(b1-6)Gal(b1-4)GlcNAc
# Method in brief: as §1
# [26] = target: Gal(b1-4)GlcNAc(b1-6)Gal(b1-4)GlcNAc(b1-6)GalNAc
# Method in brief: as §1
# [27] = target: Gal(b1-4)GlcNAc(b1-6)GalNAc
# Method in brief: as §1
# [28] = target: Gal(b1-4)GlcNAc(b1-6)[Gal(b1-3)]GalNAc
# Method in brief: as §1
# [29] = target: Gal3S(b1-3)GalNAc
# Method in brief: as §1
# [30] = target: Gal3S(b1-3)GlcNAc
# Method in brief: as §1
# [31] = target: Gal3S(b1-3)[Fuc(a1-4)]GlcNAc
# Method in brief: as §1
# [32] = target: Gal3S(b1-4)Glc
# Method in brief: as §1
# [33] = target: Gal3S(b1-4)Glc6S
# Method in brief: as §1
# [34] = target: Gal3S(b1-4)GlcNAc
# Method in brief: as §1
# [35] = target: Gal3S(b1-4)GlcNAc6S
# Method in brief: as §1
# [36] = target: Gal3S(b1-4)[Fuc(a1-3)]Glc
# Method in brief: as §1
# [37] = target: Gal3S4S(b1-4)GlcNAc
# Method in brief: as §1
# [38] = target: Gal3S6S(b1-4)GlcNAc
# Method in brief: as §1
binder,measurement,setting,value
B1,glycan array binding signal (z-score),[1],-0.014
same,glycan array binding signal (z-score),[2],-0.191
same,glycan array binding signal (z-score),[3],-0.121
same,glycan array binding signal (z-score),[4],-0.412
same,glycan array binding signal (z-score),[5],-0.388
same,glycan array binding signal (z-score),[6],-0.129
same,glycan array binding signal (z-score),[7],-0.35
same,glycan array binding signal (z-score),[8],-0.246
same,glycan array binding signal (z-score),[9],-0.055
same,glycan array binding signal (z-score),[10],-0.484
same,glycan array binding signal (z-score),[11],0.081
same,glycan array binding signal (z-score),[12],-0.015
same,glycan array binding signal (z-score),[13],-0.375
same,glycan array binding signal (z-score),[14],-0.386
same,glycan array binding signal (z-score),[15],-0.464
same,glycan array binding signal (z-score),[16],-0.413
same,glycan array binding signal (z-score),[17],-0.249
same,glycan array binding signal (z-score),[18],0.104
same,glycan array binding signal (z-score),[19],-0.417
same,glycan array binding signal (z-score),[20],-0.305
same,glycan array binding signal (z-score),[21],-0.574
same,glycan array binding signal (z-score),[22],-0.376
same,glycan array binding signal (z-score),[23],-0.329
same,glycan array binding signal (z-score),[24],-0.254
same,glycan array binding signal (z-score),[25],-0.296
same,glycan array binding signal (z-score),[26],0.586
same,glycan array binding signal (z-score),[27],-0.439
same,glycan array binding signal (z-score),[28],-0.304
same,glycan array binding signal (z-score),[29],0.033
same,glycan array binding signal (z-score),[30],-0.275
same,glycan array binding signal (z-score),[31],-0.195
same,glycan array binding signal (z-score),[32],-0.195
same,glycan array binding signal (z-score),[33],0.03
same,glycan array binding signal (z-score),[34],-0.208
same,glycan array binding signal (z-score),[35],-0.044
same,glycan array binding signal (z-score),[36],-0.048
same,glycan array binding signal (z-score),[37],-0.154
same,glycan array binding signal (z-score),[38],-0.057
